According to the BET-seq Pho4 binding data (Le et al. 2018):
This is one part of the list. The energies were worked out here from pooled read counts, against the library average; single values are noisy.

Target: T1, Pho4 (S. cerevisiae) (UniProt P07270)
T1 sequence: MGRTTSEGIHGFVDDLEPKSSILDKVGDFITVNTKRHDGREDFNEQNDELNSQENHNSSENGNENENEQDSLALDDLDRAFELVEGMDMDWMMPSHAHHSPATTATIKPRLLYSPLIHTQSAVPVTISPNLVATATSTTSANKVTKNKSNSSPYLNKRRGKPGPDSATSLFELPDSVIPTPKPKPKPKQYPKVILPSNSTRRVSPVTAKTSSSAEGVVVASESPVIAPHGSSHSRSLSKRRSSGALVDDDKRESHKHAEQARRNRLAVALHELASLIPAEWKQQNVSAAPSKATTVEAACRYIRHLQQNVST
Experiment: relative binding free energy (BET-seq); higher = weaker binding
Settings: reference: library average

Sequence	relative binding free energy [kcal/mol]
AGGGACACGTGTGAGG	0
TTTTGCACGTGAGATT	0.39
TGTTTCACGTGATTTC	0.4
TAGGTCACGTGGTGCT	0
ACGCTCACGTGGGTGT	0.06
TGGCGCACGTGGGGAG	-0.13
CAGATCACGTGCGGGG	0.07
GGGGGCACGTGCCGTG	-0.21
AATATCACGTGGATGG	0.16
AAGTCCACGTGTTGTT	0.02
GCGGCCACGTGCGGGG	-0.19
CGCGACACGTGTGGGG	0
ACAGTCACGTGTGTTT	-0.02
TCTGTCACGTGCTGTT	-0.01
AATGACACGTGCGGTT	0.05
TTCATCACGTGTTATG	0.19
AGGTGCACGTGATGGT	0.13
CGGTACACGTGGTTTG	-0.05
GAGGGCACGTGTGAAC	0.18
GAGCGCACGTGTGTTA	-0.03
TGAAACACGTGTTAAA	0.16
GTTAACACGTGTGTTG	0.16
TTAAACACGTGAGTAG	0.23

Sequence	relative binding free energy [kcal/mol]
TAATTCACGTGTGGAC	0.4
GGGGCCACGTGTGAGG	0.01
GGGTTCACGTGATAGC	0.51
CGGATCACGTGTGCTG	0.36
GGGGTCACGTGGCCGG	0.15
GGAGTCACGTGGGCTA	-0.11
TCCTGCACGTGAGGGG	0.17
TGTGGCACGTGTTCTG	-0.08
ATGTACACGTGTAGGG	0.01
TAAAACACGTGGTGAG	0.03
TTTTGCACGTGTGCTA	-0.01
TTTTACACGTGCAGTA	0.1
AATGGCACGTGCGGTC	-0.02
TATTGCACGTGTGCGT	-0.04
GGAATCACGTGGTTAT	0.08
TTATGCACGTGTATTC	-0.05
TCGGGCACGTGGTCTT	-0.25
CTAAACACGTGGAGGG	0.07
TTGTTCACGTGGGCAA	0.02
TATGACACGTGGTTTA	-0.04
GCGTTCACGTGTGGCT	0.34
TGGTACACGTGTTCCG	0.12
TAGCTCACGTGTTAAG	0.33

Sequence	relative binding free energy [kcal/mol]
CTTTTCACGTGTGTTG	0.24
CGGTTCACGTGTTCGT	0.34
AAAATCACGTGTGATG	0.19
CATCTCACGTGATGGT	0.4
GGCTACACGTGGAGGA	0.17
GGGAGCACGTGTTTAG	-0.12
GTTCACACGTGGTGGG	0.19
GATTGCACGTGACGGT	0.23
TGGATCACGTGGCGTA	0.16
TAGTACACGTGGTAAA	0.13
TGGTGCACGTGGGCTC	-0.2
TTTTTCACGTGGCTCG	0.23
TTTAACACGTGGACGG	0.08
GTATGCACGTGTACGT	-0.08
TCAGTCACGTGTGGGC	0.12
TTTTCCACGTGGTGGC	0.05
GTATGCACGTGAAATT	0.39
ATTTTCACGTGTAGGT	0.18
TAGTACACGTGGATAA	0.15
GTGGTCACGTGCGTTC	0.11
TGGGCCACGTGCGGTT	-0.06
GTAGGCACGTGTCTAG	0.01
TGGACCACGTGGTGTT	-0.16

Sequence	relative binding free energy [kcal/mol]
GGGAGCACGTGGGAGA	-0.06
TTAGTCACGTGCTGAG	0.05
GGTGCCACGTGGGGAG	-0.18
GTTGCCACGTGATGTC	0.28
ATAGTCACGTGTCGTA	0.07
GAGAGCACGTGTGCGG	-0.18
TATGCCACGTGTGCGG	-0.14
TGGATCACGTGGTTCG	0.11
GTAGTCACGTGGTGTT	0.06
ATGCTCACGTGTGGTC	0.34
GGAGGCACGTGATGCT	0.01
TGGTTCACGTGTCAAG	0.29
GCTATCACGTGTTGTG	0.08
GGTGGCACGTGTGTCG	-0.05
TAGGACACGTGTGGAG	0.11
GTGTGCACGTGTACTG	-0.2
GGTACCACGTGAGGGC	0.17
AGTTGCACGTGGCGTC	-0.18
GTCTGCACGTGTGGGC	0.17
CGGGGCACGTGGGCCA	-0.3
GCGTACACGTGTTATG	0.02
GGGTTCACGTGGATGG	0.34
TTCATCACGTGGGGTT	0

Sequence	relative binding free energy [kcal/mol]
GAGGGCACGTGTTTTT	-0.03
GAGGCCACGTGTGTTG	0.03
AGATGCACGTGCGGAG	-0.08
AAGTTCACGTGAATGG	0.45
GCGGTCACGTGTTTTT	0.32
ATTGGCACGTGTAAGG	-0.02
TGGGACACGTGACTTT	0.14
TTGGTCACGTGGAGTT	0.27
GTGGGCACGTGGCTGT	-0.08
AGTTGCACGTGAAGGT	0.23
ATGTGCACGTGTAATG	0.07
TTCGGCACGTGGTATT	-0.11
TAGTACACGTGATATG	0.12
GATGTCACGTGCGTTT	0.06
TGCGTCACGTGGGTGA	-0.04
AGGGCCACGTGTCGGT	-0.09
CGTAGCACGTGTGATG	-0.12
CGATGCACGTGGGGTA	-0.01
ATATACACGTGTAAGG	0.11
AGGTGCACGTGGGGCC	-0.28
GTAGTCACGTGCGGAT	0.01
ATGTGCACGTGGGTCC	-0.16
TTAGACACGTGTTGGA	0.07
